Where “and” joins values, the source holds several entries; their conditions need not be identical. Equal values may be shown once. Among all 420,000 compounds or so, about 75 (0.02%) were called active. The inconclusive results got no clear call from the source; some entries with a clear call stand among them for comparison. Calls come from the whole dose curve; as a rule, active = well fitted activation curve with a large enough effect; inconclusive = small, poorly fitted or top-dose-only effect; inactive = no such curve, though single readings can be large or run the other way. A potency beside an inconclusive call is a rough fit, not a confirmed value.
Experiment: qHTS for Inducers of the Endoplasmic Reticulum Stress Response (ERSR) in Human Glioma: qHTS; note: nearly all actives have a fitted effect of over 35% in size; for activation: % of control where 0% means no effect
Conditions: U87-MG GRP78 promoter luciferase reporter, 16 h; activation: stronger effect = higher value
Summary of the method: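 ERSR induction read as luciferase luminescence (Bright-Glo, 10 min at room temperature) in stably transfected human U87-MG glioma cells exposed to compounds for 16 h, using GRP78 as sensor.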
Potency is the fitted concentration of half-maximal effect; tags give direction and shape of the fitted curve.

| SMILES | Potency | activation |
| --- | --- | --- |
| CCn1c(SCC(=O)c2ccc(O)c(O)c2)nnc1-c1ccc(C)cc1 | inconclusive: 50.1 µM [activator, single point] |  |
| Cc1ccc(S[C@@H](CCN2CC[C@H](C)CCC2=O)c2ccccc2)cc1 | inconclusive: 50.1 µM [activator, single point] |  |
| CCOC(=O)c1cc(-c2ccccc2)n(CCC(=O)Nc2ccc(C(F)(F)F)cc2)c1C | inconclusive: 11.2 µM [activator, single point] |  |
| Cc1noc(NS(=O)(=O)c2ccc(NC(=O)c3oc4ccc(F)cc4c3C)cc2)c1C | inconclusive: 44.7 µM [activator, partial curve, poor fit] |  |
| Cc1cc(C)nc(SCC(=O)Nc2ccc3c(c2)OCO3)n1 |  | inactive: 10.5% |
| CN1CCN(NC(=O)c2cc(S(=O)(=O)N3CCOCC3)c(Cl)cc2Cl)CC1 |  | inactive: -4.08% |
| CC(=O)Nc1ccc2nc(NC(=O)c3ccc([N+](=O)[O-])o3)sc2c1 | inconclusive: 10 µM [activator, partial curve, poor fit] |  |
| CCOC(=O)C1CCC(CNCc2ccccc2C)CC1 (stereo not drawn) |  | inactive: 0.0301% |
| Oc1ccc(Br)cc1C1C=C(c2ccc3c(c2)OCO3)NC(c2cccc(F)c2)N1 (stereo not drawn) | inconclusive: 22.4 µM [activator, single point] |  |
| O=C(CCn1c(=O)[nH]c2ccccc21)NCC1Cc2cc(Cl)cc(-c3ccncc3)c2O1 (stereo not drawn) |  | inactive: -3.12% |
| CC1=C(C(=O)N(C(C)C)C(C)C)CC(CC(=O)NC2CCCCC2)C(=O)N1Cc1ccc(C(C)(C)C)cc1 (stereo not drawn) | inconclusive: 44.7 µM [activator, single point] |  |
| Cc1cc(NC(=O)CSc2nc3ccccc3c(=O)n2Cc2ccccc2)no1 |  | inactive: -7.77% |
| Cn1c(=O)c(-c2cc(Br)ccc2N)nc2ccccc21 | inconclusive: 11.2 µM [activator, single point] |  |
| Cc1nc2ccc(Cl)cc2c(-c2ccccc2Cl)c1CC(=O)O | inconclusive: 31.6 µM [activator, partial curve] |  |
| N#CC1=C(N)N(c2ccc(Br)cc2)C2=C(C(=O)CCC2)C1c1cccnc1 (stereo not drawn) | inconclusive: 15.8 µM [activator, single point] |  |
| CN(c1ccccc1)S(=O)(=O)c1cccc(C(=O)NCCc2ccc(O)c(O)c2)c1 | inconclusive: 5.62 µM [activator, full curve, poor fit] |  |
| Cc1ccc(-n2nnnc2CCl)cc1 |  | inactive: -14.6% |
| CCN(CC(=O)Nc1c(F)cccc1F)C(=O)Cc1c(C)nc2ccccc2c1C |  | inactive: -4.21% |
| Cc1nsc2nc3c(F)c(F)c(F)c(F)c3cc12 | inconclusive: 44.7 µM [activator, partial curve, poor fit] |  |
| O=C(C#Cc1ccccc1)Nc1ccccc1F | inconclusive: 10 µM [activator, full curve, poor fit] |  |
| Cc1ccccc1NCc1ccc(O)c2ncccc12 |  | inactive: -0.179% |
| Cc1ccc(C)c(Nc2nc(N)c3ccccc3n2)c1 |  | inactive: -4.98% |

| SMILES | Potency | activation |
| --- | --- | --- |
| Cc1ccc(CNC(=O)c2ccc(Cn3c(=O)c4ccccc4n(CC(=O)Nc4ccc(C)cc4)c3=O)cc2)cc1 |  | inactive: -2.98% |
| CC1(C)CC(/C=C/c2ccccc2)=Nc2ccccc2N1 | inconclusive: 14.1 µM [activator, full curve] |  |
| Nc1ccc(S(=O)(=O)NC2=NCCCCC2)cc1N | inconclusive: 28.2 µM [activator, single point] |  |
| CCOC(=O)CSC1=C(C#N)C(c2ccco2)C(C(=O)OCc2ccccc2)=C(C)N1 (stereo not drawn) | inconclusive: 14.1 µM [activator, single point] |  |
| CC(=O)SC[C@@H](Cc1ccccc1)C(=O)NCC(=O)OCc1ccccc1 | inconclusive: 28.2 µM [activator, single point] |  |
| Cc1ccc(NC(=O)Cn2c(O)c(N=NC(N)=O)c3ccccc32)cc1 |  | inactive: -3.78% |
| COc1ccccc1N1CC(C)(C)C(=O)N(C(=O)c2ccc(C)cc2)C1=S | active: 25.1 µM |  |
| Cc1cc(Nc2cc(C)on2)n2ncnc2n1 |  | inactive: 2.18% |
| COC(=O)Cc1ccc(NC(=O)c2ccc(Br)o2)cc1 | inconclusive: 10 µM [activator, partial curve, poor fit] |  |
| CCOc1ccc2nc(N3CCC(C(=O)N4CCN(c5ccccn5)CC4)CC3)sc2c1 | inconclusive: 28.2 µM [activator, single point] |  |
| CCOC(=O)CSc1nc2ccc(NC(=O)c3ccc(F)cc3)cc2s1 | inconclusive: 39.8 µM [activator, partial curve] |  |
| CN(C)c1ccc(/C=C/C(=O)c2ccc(O)cc2)cc1[N+](=O)[O-] | inconclusive: 7.08 µM [activator, partial curve, poor fit] |  |
| COc1ccc(-c2nnc3n2N=C(C)CS3)cc1 |  | inactive: -1.05% |
| Brc1cc2c(cc1/C=N/Nc1nc3ccccc3s1)OCO2 | inconclusive: 5.01 µM [activator, partial curve, poor fit] |  |
| COc1ccccc1C1CC(c2cccs2)=Nc2ccccc2S1 (stereo not drawn) | inconclusive: 39.8 µM [activator, partial curve, poor fit] |  |
| O=C(/C=C/c1ccccc1)NC(=S)NNC(=O)c1ccco1 | inconclusive: 28.2 µM [activator, partial curve, poor fit] |  |
| O=C(CSc1nc2ccccc2o1)N/N=C/c1ccc(O)c(O)c1 | inconclusive: 31.6 µM [activator, partial curve, poor fit] |  |
| CCn1c(SCC(=O)c2cc(OC)ccc2OC)nnc1C1CC1 | inconclusive: 63.1 µM [activator, single point] |  |
| COc1ccc(C(=O)N2CCN(CCc3ccccn3)CC2)cc1 |  | inactive: 0.95% and inactive: -1.97% |
| Cc1ccc(-c2nn3c(C)nnc3c3ccccc23)cc1S(=O)(=O)NC(C)(C)CO | inconclusive: 28.2 µM [activator, single point] |  |
| CCN(CC(=O)NC1CCS(=O)(=O)C1)S(=O)(=O)c1cc(C)ccc1C (stereo not drawn) |  | inactive: -0.175% |

From PubChem BioAssay AID602332 (National Center for Advancing Translational Sciences (NCATS), 2012)
